# Out of some 50,000 compounds screened, about 800 (1.6%) showed an effect of 50% or more. This is one part of the list.
# Target: Bcl-2-like protein 10 (Homo sapiens) (UniProt Q9HD36)
# Assay: Phenotype converters, Bcl-B/TR3 peptide binding displacement, primary biochemical FP (AID 1240);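 also: 0% = Bcl-B with tracer peptide and DMSO and 100% = tracer peptide lacking Bcl-B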
# Details: GST-Bcl-B / FITC-TR3 peptide fluorescence polarization; stronger effect = higher value; compound at 3.75 mg/L
# Chain of UniProt Q9HD36 (Q9HD36 whole entry, looked up): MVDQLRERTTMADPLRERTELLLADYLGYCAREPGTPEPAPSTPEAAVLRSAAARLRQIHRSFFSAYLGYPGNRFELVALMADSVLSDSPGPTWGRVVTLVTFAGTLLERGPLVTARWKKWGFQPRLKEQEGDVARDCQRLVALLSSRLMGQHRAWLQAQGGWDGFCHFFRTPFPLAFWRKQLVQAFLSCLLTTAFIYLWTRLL
row,SMILES,displacement
1,Cc1ccc(Cl)cc1NC(=O)CSC(N)=O,5.7%
2,Cc1cc(Cl)cc(C)c1OCCOCCN1CCN(C)CC1,-7.2%
3,CN(C)S(=O)(=O)NCCNc1ccc([N+](=O)[O-])cc1,-6%
4,CCOc1cc(/C=C2/SC(=S)N(C)C2=O)ccc1OC(=O)c1ccc(F)cc1,13.6%
5,CC(=O)c1c(C)nn2c3ccccc3n(C)c12,-16%
6,Cc1c(OCc2ccccc2)ccc2c3c(c(=O)oc12)CCC3,12%
7,NNC(=O)c1cc(C(=O)O)nc2ccc(Br)cc12,0.1%
8,CC(=O)OCC12COC(C)C(C1)C(C)=CC2C (centres undefined),17.9%
9,Fc1ccc(-c2nnc(-c3ccc(Br)o3)o2)cc1,-6.5%
10,COc1ccc(Cn2c(O)c(/C=C3\C=CC=N3)c(=O)[nH]c2=O)cc1,12.5%
11,CCC(=O)c1ccc(N2CCCCCC2)c(F)c1,-4.9%
12,O=C(N/C(=C\c1ccc(-c2ccc(Cl)cc2)o1)C(=O)N1CCOCC1)c1ccccc1,1%
13,CCOc1ccc(NC(=O)c2cc(C(=O)O)ccc2C(=O)O)cc1,8%
14,Cc1cccc(OCC(=O)Nc2ccccc2C(F)(F)F)c1,10.8%
15,CSc1nc2c(c(-c3ccc(Cl)cc3)c1C#N)C(=O)CC(C)(C)C2,-10.4%
16,CC(C)(C)c1ccc(OCCOc2cccc(C=C3C(=O)NC(=O)NC3=O)c2)cc1,3.2%
17,O=[N+]([O-])c1ccc(Sc2nc3ccccc3s2)c(C(F)(F)F)c1,0.4%
18,Cc1ccc(S(=O)(=O)NCCNc2c(Cl)cccc2[N+](=O)[O-])cc1,12.2%
19,O=C1C(Cl)=C(N2CCOCC2)C(=O)C(Cl)=C1/C=C/N1CCOCC1,24.3%
20,COc1cc(C(=O)NN2C(=O)/C(=C/c3ccc(Cl)cc3Cl)SC2=S)ccc1O,-8.9%
21,CCN(CC)C(=O)c1cnn(-c2ccccc2)c1NC(=O)c1cccc(F)c1,-1.1%
22,COc1ccc(C(=O)Nc2cccc(C(=O)Nc3cccc(O)c3)c2)cc1,1.6%
23,O=C(Nc1ccc(S(=O)(=O)Nc2cnc3ccccc3n2)cc1)c1ccc(Cl)cc1Cl,-1.5%
24,COc1ccc(C(=O)C(Sc2nnnn2-c2ccccc2)c2ccc([N+](=O)[O-])cc2)cc1 (centres undefined),1.7%
25,COc1ccc(C2/C(=C(/O)c3ccccc3)C(=O)C(=O)N2c2cccc(Br)c2)c(OC)c1 (centres undefined),-0.7%
26,CCOC(=O)C1=C(C)Nc2ccccc2S1,-2.7%
27,COc1ccccc1C(NC(=O)Cc1ccccc1)c1ccc2cccnc2c1O (centres undefined),-0.4%

row,SMILES,displacement
1,O=S(=O)(NCCOc1ccccc1F)c1ccccc1,-8.7%
2,Cc1cccc(NC(=S)NC(=O)/C=C/c2ccccc2)c1,3.8%
3,Cc1ccc(C(=O)Nc2ccc(O)c(-c3nc4ccccc4s3)c2)cc1[N+](=O)[O-],-3.2%
4,O=C(N/N=C/c1cccs1)c1cc(-c2ccc3ccccc3c2)n[nH]1,-4%
5,O=C(N/N=C/c1cc2c(cc1Br)OCO2)c1cccc2ccccc12,6.1%
6,O=C(Nc1nc2ccc(Cl)cc2s1)c1ccc(Br)s1,-26%
7,O=C(Nc1ccc(Cl)cc1)N1CCN(c2ccc(Cl)cc2)CC1,0.3%
8,O=C(C(c1ccccc1)c1ccccc1)N1CCN(Cc2ccccc2[N+](=O)[O-])CC1,-7.5%
9,Cc1ccc(NC2=C(Cl)C(=O)N(c3ccc(Cl)cc3)C2=O)cc1C,8%
10,CCOC(=O)c1ccc(-n2c(C)cc(/C=C3\SC(=O)NC3=O)c2C)cc1,11.4%
11,COc1ccc(C)cc1NC(=O)COc1ccc(Br)cc1C,7.7%
12,CCOC(=O)c1ccc(NC(=O)C(Cl)(Cl)Cl)cc1,-4.3%
13,COc1cc(-c2ccc(NCN3C(=O)c4ccccc4C3=O)c(OC)c2)ccc1NCN1C(=O)c2ccccc2C1=O,3.2%
14,COc1cc(NC(=O)c2ccc(-c3ccc([N+](=O)[O-])cc3C)o2)ccc1NC(=O)c1ccco1,-21.8%
15,COc1cc(NC(=O)c2ccc(Br)cc2)cc([N+](=O)[O-])c1,0.6%
16,CC(Oc1ccc(Cl)cc1Cl)C(=O)Nc1ncccn1 (centres undefined),-3%
17,CCOc1cccc(=O)c2c(C)oc(C)c12,16.8%
18,O=C(Nc1cccc(Cl)c1)Nc1ccccc1C(=O)N1CCN(c2ccc(F)cc2)CC1,-3.6%
19,O=C1C(Cl)=CC(=NS(=O)(=O)c2ccc(Cl)cc2)c2ccccc21,5.9%
20,CC(=O)Oc1ccc(/C=C(\NC(=O)c2ccccc2)C(=O)NCC(=O)OCc2ccccc2)cc1,1.4%
21,O=C1C(C23CC4CC(CC(C4)C2)C3)C(=O)N(c2ccccc2)N1c1ccccc1,0%
22,COc1cc(-c2nnc(SCc3c(F)cccc3Cl)o2)cc(OC)c1OC,-12%
23,C=CCn1c(Cc2ccccc2)nc2c(cnn2-c2ccccc2)c1=O,10.6%
24,CCOc1ccc(C(=O)Nc2c(C)cc(Br)cc2C)cc1,10.5%
25,CCc1ccc(NC(=O)c2cc([N+](=O)[O-])ccc2Cl)cc1,3.9%
26,O=C1C2C(c3ccccc3)C=CC(c3ccccc3)C2C(=O)N1c1cccnc1 (centres undefined),12%
27,O=C1C(=O)N(c2cccc(Cl)c2)C(c2cccc(F)c2)/C1=C(\O)c1ccccc1 (centres undefined),1.6%

# — PubChem BioAssay AID1240 (Sanford-Burnham Center for Chemical Genomics, 2008)
